Hit rate of the full screen: of about 270,000 compounds, about 5,800 (2.1%) were called active. Inconclusive results, whose numbers are uncertain, are shown with a selection of clear calls. Calls follow the shape of the dose curve; as a rule, active = well fitted inhibition curve with a large enough effect; inconclusive = small, poorly fitted or top-dose-only effect; inactive = flat fitted curve, though single readings scatter. Potencies of inconclusive entries are doubtful fits and often do not repeat.
target: Microtubule-associated protein tau (Homo sapiens) (UniProt P10636); experiment: qHTS for Inhibitors of Tau Fibril Formation, Thioflavin T Binding; settings: recombinant tau K18 P301L (four-repeat tau fragment), heparin-induced fibrillization, ThT fluorescence; series mostly up to 57.4 µM; also: nearly all actives have a fitted effect of over 55% in size
How it was run: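 K18 P301L tau (15 uM + 0.24 uM Alexa 594-tagged), heparin 20 uM, NaOAc pH 7, 6 h 37 C; ThT 30 uM, 1 h RT, ex 450/em 510 nm.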
% is scaled to controls: 0 for no effect and ±100 for the full control effect; potency is read from the fitted curve at half-maximal effect; tags tell the direction and shape of the fitted curve.

Chain of UniProt P10636 (P10636 whole entry, looked up, the tested form may be a part): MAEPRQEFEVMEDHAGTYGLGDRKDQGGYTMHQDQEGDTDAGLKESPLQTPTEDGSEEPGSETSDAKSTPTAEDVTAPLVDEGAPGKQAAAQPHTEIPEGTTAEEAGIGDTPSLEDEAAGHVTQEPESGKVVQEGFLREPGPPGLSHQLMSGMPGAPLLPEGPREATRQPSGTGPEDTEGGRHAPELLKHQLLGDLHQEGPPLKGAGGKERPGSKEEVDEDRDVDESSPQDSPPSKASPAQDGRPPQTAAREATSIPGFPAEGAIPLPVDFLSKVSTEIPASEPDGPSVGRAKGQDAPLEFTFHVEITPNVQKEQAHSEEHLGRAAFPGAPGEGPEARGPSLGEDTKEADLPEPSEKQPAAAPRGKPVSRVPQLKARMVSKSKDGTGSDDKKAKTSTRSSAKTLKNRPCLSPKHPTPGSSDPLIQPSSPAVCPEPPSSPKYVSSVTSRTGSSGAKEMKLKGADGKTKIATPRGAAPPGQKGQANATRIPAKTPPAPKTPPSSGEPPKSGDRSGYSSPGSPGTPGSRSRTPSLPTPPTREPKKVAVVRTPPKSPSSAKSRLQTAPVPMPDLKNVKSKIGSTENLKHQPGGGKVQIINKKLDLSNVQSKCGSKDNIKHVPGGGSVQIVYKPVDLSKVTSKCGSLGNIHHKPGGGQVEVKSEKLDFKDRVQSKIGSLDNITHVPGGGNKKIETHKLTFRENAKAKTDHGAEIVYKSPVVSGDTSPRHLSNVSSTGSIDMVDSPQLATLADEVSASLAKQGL

SMILES	Potency	activity, negative = inhibition
O=[N+]([O-])c1ccc(NCCNc2ccc(Cl)nn2)cc1	inconclusive: 11.2 µM [inhibitor, partial curve]	
Oc1ccccc1NCC(O)Cn1ccc2ccccc21 (stereo unspecified)	active: 14.1 µM	
O=C(Nc1nnc(-c2ccncc2)s1)C1CCCO1 (stereo unspecified)	inactive	
N#C/C(=C(/O)c1ccc(Cl)c([N+](=O)[O-])c1)c1nc2ccccc2[nH]1	inconclusive: 3.98 µM [inhibitor, full curve]	
C(=N\Nc1nn2cnnc2c2ccccc12)/c1ccco1	inconclusive: 35.5 µM [inhibitor, single point]	
C=CCn1c(SCC(=O)c2ccc(CNC(C)=O)o2)nc2scc(C3CC3)c2c1=O	inconclusive: 39.8 µM [inhibitor, single point]	
CN(C(=O)c1coc(=O)c2ccccc12)c1ccc(F)cc1	inconclusive: 15.8 µM [inhibitor, partial curve]	
Cc1nn(C(C)(C)C)c(OC(=O)c2cccs2)c1S(=O)(=O)c1ccccc1	inactive	
CN(C)c1ccc(NC(=O)Cn2cc3c(n2)CCCC3)cc1	inconclusive: 31.6 µM [inhibitor, single point]	
COc1ccccc1NS(=O)(=O)c1cc(NC(=O)c2sccc2C)ccc1N1CCCC1	inconclusive: 20 µM [inhibitor, single point]	
Cn1cccc1/C=C(/C#N)C(N)=S	inconclusive: 28.2 µM [inhibitor, single point]	
CCOc1ccc(N=C2NC(=O)S/C2=C\c2ccc(O)cc2)cc1	active: 3.55 µM	
Clc1ccc(-n2nnc(-c3cccnc3Cl)n2)cc1Cl	inconclusive: 39.8 µM [inhibitor, single point]	
COc1ccccc1Cn1c(SCC(N)=O)nc2c(oc3ccccc32)c1=O	inactive	
CCOc1ccccc1NC(=O)Nc1cccc(C(C)=O)c1	inconclusive: 3.55 µM [inhibitor, full curve]	
COc1ccc(/C=C2\SC(=S)N(C(Cc3ccccc3)C(=O)O)C2=O)cc1 (stereo unspecified)	inconclusive: 14.1 µM [inhibitor, partial curve]	
CCOc1ccccc1C(=O)Oc1c(Sc2ccccc2)c(C)nn1C(C)(C)C	inactive	
CSc1nsc(/C=C/Nc2ccc(F)cc2F)c1C#N	active: 14.1 µM	
O=C(N/N=C/c1cccc(OC(=O)c2ccc3c(c2)OCO3)c1)c1cncc(Br)c1	inconclusive: 17.8 µM [inhibitor, partial curve]	
CCN1CCN(C(c2ccccc2)c2sc3nc(-c4ccco4)nn3c2O)CC1 (stereo unspecified)	inactive	
CCn1c(SCC(=O)OC2CCCCC2)nc2ccccc2c1=O	inconclusive: 28.2 µM [inhibitor, single point]	
Cc1ncc(CC(=O)n2cc(C(=O)c3cc(F)ccc3O)cn2)s1	inactive	
COC(=O)c1ccc(C(=O)OC)c(N)c1	inconclusive: 17.8 µM [inhibitor, partial curve, poor fit]	
O=c1cc(/C=C/c2ccccc2)oc2c1ccc1ccccc12	inconclusive: 17.8 µM [inhibitor, partial curve]	

SMILES	Potency	activity, negative = inhibition
COc1cc2ccccc2c2c1CCCC2=O	inconclusive: 39.8 µM [inhibitor, single point]	
Cc1ccccc1OCc1nnc(SCC(=O)Nc2ccc3c(c2)oc2ccccc23)n1C	inconclusive: 1.41 µM [inhibitor, partial curve]	
CCOC(=O)c1c(C)n(CC(O)c2ccccc2)c2ccc(O)cc12 (stereo unspecified)	inconclusive: 35.5 µM [inhibitor, single point]	
COc1ccc(-c2cn3c(n2)sc2cc(C(=O)NCCCN4CCCCCC4)ccc23)cc1	inactive	
N#CCC(=O)N/N=C/c1ccc(SCC(=O)Nc2ccccc2)o1	active: 25.1 µM	
COc1ccc(-c2nc3c(c4c2C[C@H](c2ccccc2)OC4)CN(S(=O)(=O)c2ccc(NC(C)=O)cc2)CC3)c(C)c1		inactive: 2.14% [at 11.5 µM]
COc1ccc(Nc2ccc(N3C(=O)CCCC3=O)cc2[N+](=O)[O-])cc1OC	inconclusive: 20 µM [inhibitor, single point]	
CCOC(=O)/C(N=Nc1sc(C(=O)OC)c(C)c1C(=O)OCC)=C(\O)CCl	inconclusive: 39.8 µM [inhibitor, single point]	
OCCC1CN(Cc2ccccc2-c2ccco2)CCN1Cc1ccsc1 (stereo unspecified)	inactive	
Cc1ccc2c(Cl)cc(Cl)c(OCC(=O)N3CCCC3)c2n1	inactive	
CC(Oc1ccc(Cl)cc1)C(=O)NNC(=S)NC(=O)c1ccco1 (stereo unspecified)	inconclusive: 39.8 µM [inhibitor, single point]	
COc1ccccc1NC(=O)c1c(NCc2ccc(C)o2)sc2c1CCC(C)C2 (stereo unspecified)	inconclusive: 28.2 µM [inhibitor, partial curve]	
CC(=O)c1c(C)nc(-c2ccc(Cl)cc2)nc1N=CN(C)C	inactive	
COc1ccc(C(=O)N/N=C/c2cc3ccccc3[nH]c2=O)cc1	inconclusive: 1.78 µM [inhibitor, partial curve]	
O=C(Nc1ccccc1)c1cc([N+](=O)[O-])ccc1Cl	inconclusive: 39.8 µM [inhibitor, single point]	
COc1ccccc1-n1cccc1C=O	inactive	
COC(=O)CSc1nc2nc(C)c(Br)cc2[nH]1	inactive	
Cc1cccc(-c2nsc(SCC(=O)c3ccc(Cl)cc3)n2)c1	inconclusive: 15.8 µM [inhibitor, partial curve]	
CCCSc1ncc(Cl)c(C(=O)N(Cc2ccc(N(C)C)cc2)C2CCS(=O)(=O)C2)n1 (stereo unspecified)	inconclusive: 20 µM [inhibitor, single point]	
C=CCN1C(=O)/C(=C2\SC(N3CCOCC3)=NC2=O)c2cc(Br)ccc21	active: 15.8 µM	
COc1ccc(-c2oc3cc(O[C@@H]4OC(CO)C(O)C(O)C4O)c(OC)c(O)c3c(=O)c2OC)cc1O (stereo partly specified)	inconclusive: 10 µM [inhibitor, partial curve]	
CN1CCN(c2oc(-c3ccc(COc4ccc(Cl)cc4)o3)nc2C#N)CC1	inconclusive: 14.1 µM [inhibitor, partial curve]	
O=C(CN1CCN(c2ccc(O)cc2)CC1)Nc1ccc(SC(F)F)cc1	inconclusive: 35.5 µM [inhibitor, partial curve]	
N#Cc1c(NC(=S)NC(=O)c2ccccc2)sc2c1CCN(CCc1ccccc1)C2	inconclusive: 8.91 µM [inhibitor, full curve]	

SMILES	Potency	activity, negative = inhibition
CCOc1ccc(NCc2ccccc2OCc2cccc(F)c2)cc1	inconclusive: 22.4 µM [inhibitor, partial curve]	
Brc1ccc(-c2cn3cccnc3n2)cc1	inconclusive: 44.7 µM [inhibitor, single point]	
COc1cccc(N=c2oc3ccccc3cc2-c2nc3ccccc3[nH]2)c1	inconclusive: 15.8 µM [inhibitor, partial curve]	
Oc1c(CN2CCOCC2)ccc2ccccc12	inconclusive: 15.8 µM [inhibitor, partial curve, poor fit]	
O=C1CC(N2CCN(c3ccc(O)cc3)CC2)C(=O)N1Cc1cccs1 (stereo unspecified)	inconclusive: 17.8 µM [inhibitor, single point]	
CCOC(=O)c1c(C)nc2sc(C(=O)Nc3ccccc3)c(N)c2c1-c1ccc(OC)cc1	inconclusive: 3.98 µM [inhibitor, full curve]	
Cc1[nH][nH]c(=O)c1C(c1cc([N+](=O)[O-])ccc1O)c1c(C)[nH][nH]c1=O	inconclusive: 35.5 µM [inhibitor, single point]	
Cc1cccc2cc(-c3ccccc3)c(-c3ccccc3)c[n+]12	inconclusive: 14.1 µM [inhibitor, partial curve]	
CCOC(=O)c1ccc(NC(=O)COCc2cc(-c3ccc4c(c3)OCO4)on2)cc1	inconclusive: 0.282 µM [inhibitor, full curve]	
N/C(Cc1nc2ccccc2s1)=N\O	inconclusive: 20 µM [inhibitor, partial curve]	
CCN(CC)S(=O)(=O)c1ccc(C(=O)Nc2nc3c(Cl)cc(Cl)cc3s2)cc1	inactive	
Cc1ccc(NC(=O)/C(C#N)=C/c2cc(C)n(-c3ccc(N4CCOCC4)c([N+](=O)[O-])c3)c2C)c(C)c1	inconclusive: 5.62 µM [inhibitor, partial curve]	
O=C(COc1cccc(Br)c1)N/N=C1\CCCc2ccccc21	inconclusive: 2.82 µM [inhibitor, full curve]	
COc1ccc(NC(=O)C2=Cc3cccc(OC)c3OC2)cc1	inconclusive: 10 µM [inhibitor, partial curve]	
Cc1ccsc1/C=N/n1c(COc2ccccc2)n[nH]c1=S	inactive	
N#C/C(=C\c1ccccn1)c1nc2ccccc2s1	active: 8.91 µM	
Cc1nc(C)n(CC(=O)N2CCCC(C(=O)c3ccc(Cl)cc3C)C2)n1 (stereo unspecified)	inactive	
N#CC(C#N)=C1C=CC=CN1/C(=C\c1ccco1)C(=O)c1ccccc1	active: 14.1 µM	
CNC(=O)C1CCC(Cn2c(=O)[nH]c3ccsc3c2=O)CC1 (stereo unspecified)	inactive	
COC(=O)c1ccc(CSc2nc3ccccc3c(=O)n2CC(C)C)o1	inconclusive: 28.2 µM [inhibitor, single point]	
CCOC(=O)CNC(=O)N1CCc2cc(S(=O)(=O)N3CCC(C)CC3)ccc21	inactive	
CN(c1ccc([N+](=O)[O-])cc1C(=O)Nc1ccccc1)C1CCCCC1	inconclusive: 44.7 µM [inhibitor, single point]	
Cc1nnc(SCC(=O)N/N=C/c2ccc(-c3ccc(C)c(Cl)c3)o2)s1	inconclusive: 15.8 µM [inhibitor, partial curve]	

From PubChem BioAssay AID1460 (National Center for Advancing Translational Sciences (NCATS), 2008)
